The other results are listed elsewhere or left out.
Assays:
Assay in all cases: glycan array binding signal (z-score within array); higher = stronger binding
Details in all cases: glycan notation: IUPAC condensed, linker removed
[1] = molecular target: Gal(b1-3)[Fuc(a1-4)]GlcNAc(b1-3)Gal(b1-3)[Fuc(a1-4)]GlcNAc
Outline: (§1)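 The Consortium for Functional Glycomics database supplied 3228 glycan arrays, of which those lacking an available protein sequence were dropped. The binding signal, a within-array Z-score, was averaged across arrays of the same protein sequence and across linkers. Negative scores can be read as non-binding.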

[2] = molecular target: Gal(b1-3)[Fuc(a1-4)]GlcNAc(b1-3)Gal(b1-4)GlcNAc
Outline: as §1

[3] = molecular target: Gal(b1-3)[Fuc(a1-4)]GlcNAc(b1-3)Gal(b1-4)[Fuc(a1-3)]GlcNAc
Outline: as §1

[4] = molecular target: Gal(b1-3)[Fuc(a1-4)]GlcNAc(b1-6)GalNAc
Outline: as §1

[5] = molecular target: Gal(b1-3)[GlcNAc(b1-6)]GalNAc
Outline: as §1

[6] = molecular target: Gal(b1-3)[Neu5Ac(a2-6)]GalNAc
Outline: as §1

[7] = molecular target: Gal(b1-3)[Neu5Ac(a2-6)]GlcNAc(b1-4)Gal(b1-4)Glc
Outline: as §1

[8] = molecular target: Gal(b1-3)[Neu5Ac(a2-6)]GlcNAc(b1-6)Gal(b1-4)Glc
Outline: as §1

[9] = molecular target: Gal(b1-3)[Neu5Ac(b2-6)]GalNAc
Outline: as §1

Gal(b1-4)Gal = molecular target: Gal(b1-4)Gal
Outline: as §1

[10] = molecular target: Gal(b1-4)GalNAc(a1-3)[Fuc(a1-2)]Gal(b1-4)GlcNAc
Outline: as §1

[11] = molecular target: Gal(b1-4)GalNAc(b1-3)[Fuc(a1-2)]Gal(b1-4)GlcNAc
Outline: as §1

Gal(b1-4)Glc = molecular target: Gal(b1-4)Glc
Outline: as §1

Gal(b1-4)Glc6S = molecular target: Gal(b1-4)Glc6S
Outline: as §1

Gal(b1-4)GlcNAc = molecular target: Gal(b1-4)GlcNAc
Outline: as §1

[12] = molecular target: Gal(b1-4)GlcNAc(a1-6)Gal(b1-4)GlcNAc
Outline: as §1

Gal(b1-4)GlcNAc(b1-2)Man = molecular target: Gal(b1-4)GlcNAc(b1-2)Man
Outline: as §1

[13] = molecular target: Gal(b1-4)GlcNAc(b1-2)Man(a1-3)Man(b1-4)GlcNAc(b1-4)GlcNAc
Outline: as §1

[14] = molecular target: Gal(b1-4)GlcNAc(b1-2)Man(a1-3)[Gal(b1-4)GlcNAc(b1-2)Man(a1-6)]Man(b1-4)GlcNAc(b1-4)GlcNAc
Outline: as §1

[15] = molecular target: Gal(b1-4)GlcNAc(b1-2)Man(a1-3)[Gal(b1-4)GlcNAc(b1-2)Man(a1-6)]Man(b1-4)GlcNAc(b1-4)[Fuc(a1-6)]GlcNAc
Outline: as §1

[16] = molecular target: Gal(b1-4)GlcNAc(b1-2)Man(a1-3)[Gal(b1-4)GlcNAc(b1-2)Man(a1-6)][Gal(b1-4)GlcNAc(b1-4)]Man(b1-4)GlcNAc(b1-4)[Fuc(a1-6)]GlcNAc
Outline: as §1

[17] = molecular target: Gal(b1-4)GlcNAc(b1-2)Man(a1-3)[Gal(b1-4)GlcNAc(b1-2)Man(a1-6)][GlcNAc(b1-4)]Man(b1-4)GlcNAc(b1-4)[Fuc(a1-6)]GlcNAc
Outline: as §1

[18] = molecular target: Gal(b1-4)GlcNAc(b1-2)Man(a1-3)[Gal(b1-4)GlcNAc(b1-2)][GlcNAc(b1-4)]Man(b1-4)GlcNAc(b1-4)GlcNAc
Outline: as §1

[19] = molecular target: Gal(b1-4)GlcNAc(b1-2)Man(a1-3)[GlcNAc(b1-2)Man(a1-6)]Man(b1-4)GlcNAc(b1-4)GlcNAc
Outline: as §1

[20] = molecular target: Gal(b1-4)GlcNAc(b1-2)Man(a1-3)[GlcNAc(b1-4)][Gal(b1-4)GlcNAc(b1-2)Man(a1-6)]Man(b1-4)GlcNAc(b1-4)GlcNAc
Outline: as §1

[21] = molecular target: Gal(b1-4)GlcNAc(b1-2)Man(a1-3)[Man(a1-6)]Man(b1-4)GlcNAc(b1-4)GlcNAc
Outline: as §1

[22] = molecular target: Gal(b1-4)GlcNAc(b1-2)Man(a1-6)Man(b1-4)GlcNAc(b1-4)GlcNAc
Outline: as §1

[23] = molecular target: Gal(b1-4)GlcNAc(b1-2)Man(a1-6)[GlcNAc(b1-2)Man(a1-3)]Man(b1-4)GlcNAc(b1-4)GlcNAc
Outline: as §1

[24] = molecular target: Gal(b1-4)GlcNAc(b1-2)Man(a1-6)[Man(a1-3)]Man(b1-4)GlcNAc(b1-4)GlcNAc
Outline: as §1

[25] = molecular target: Gal(b1-4)GlcNAc(b1-2)[Gal(b1-4)GlcNAc(b1-4)]Man(a1-3)[Gal(b1-4)GlcNAc(b1-2)Man(a1-6)]Man(b1-4)GlcNAc(b1-4)GlcNAc
Outline: as §1

B1: Siglec-F (Mus musculus), Q920G3 (protein)
chain: MRWAWLLPLLWAGCLATDGYSLSVTGSVTVQEGLCVFVACQVQYPNSKGPVFGYWFREGANIFSGSPVATNDPQRSVLKEAQGRFYLMGKENSHNCSLDIRDAQKIDTGTYFFRLDGSVKYSFQKSMLSVLVIALTEVPNIQVTSTLVSGNSTKLLCSVPWACEQGTPPIFSWMSSALTSLGHRTTLSSELNLTPRPQDNGTNLTCQVNLPGTGVTVERTQQLSVIYAPQKMTIRVSWGDDTGTKVLQSGASLQIQEGESLSLVCMADSNPPAVLSWERPTQKPFQLSTPAELQLPRAELEDQGKYICQAQNSQGAQTASVSLSIRSLLQLLGPSCSFEGQGLHCSCSSRAWPAPSLRWRLGEGVLEGNSSNGSFTVKSSSAGQWANSSLILSMEFSSNHRLSCEAWSDNRVQRATILLVSGPKVSQAGKSETSRGTVLGAIWGAGLMALLAVCLCLIFFTVKVLRKKSALKVAATKGNHLAKNPASTINSASITSSNIALGYPIQGHLNEPGSQTQKEQPPLATVPDTQKDEPELHYASLSFQGPMPPKPQNTEAMKSVYTEIKIHKC
Q: B1 was tested. Which “glycan array binding signal (z-score)” value [1] did it give?
A: The value was -0.103.

Q: And the “glycan array binding signal (z-score)” value [2]?
A: Its value is -0.113.

Q: What about the “glycan array binding signal (z-score)” value [3] of the same binder?
A: Its value is -0.109.

Q: And the “glycan array binding signal (z-score)” value [4]?
A: Its value is -0.044.

Q: And the “glycan array binding signal (z-score)” value [5]?
A: The value was -0.096.

Q: And the “glycan array binding signal (z-score)” value [6]?
A: Its value is -0.119.

Q: And the “glycan array binding signal (z-score)” value [7]?
A: The value was -0.13.

Q: What about the “glycan array binding signal (z-score)” value [8] of the same binder?
A: Its value is -0.091.

Q: And the “glycan array binding signal (z-score)” value [9]?
A: The value was -0.129.

Q: What about the “glycan array binding signal (z-score)” value (Gal(b1-4)Gal) of the same binder?
A: Its value is -0.11.

Q: What about the “glycan array binding signal (z-score)” value [10] of the same binder?
A: Its value is -0.124.

Q: What about the “glycan array binding signal (z-score)” value [11] of the same binder?
A: The value was -0.126.

Q: What about the “glycan array binding signal (z-score)” value (Gal(b1-4)Glc) of the same binder?
A: The value was -0.123.

Q: What about the “glycan array binding signal (z-score)” value (Gal(b1-4)Glc6S) of the same binder?
A: The value was -0.097.

Q: What about the “glycan array binding signal (z-score)” value (Gal(b1-4)GlcNAc) of the same binder?
A: The value was -0.115.

Q: What about the “glycan array binding signal (z-score)” value [12] of the same binder?
A: Its value is -0.115.

Q: And the “glycan array binding signal (z-score)” value (Gal(b1-4)GlcNAc(b1-2)Man)?
A: The value was -0.112.

Q: What about the “glycan array binding signal (z-score)” value [13] of the same binder?
A: The value was -0.112.

Q: And the “glycan array binding signal (z-score)” value [14]?
A: Its value is -0.118.

Q: What about the “glycan array binding signal (z-score)” value [15] of the same binder?
A: The value was -0.02.

Q: And the “glycan array binding signal (z-score)” value [16]?
A: Its value is -0.095.

Q: What about the “glycan array binding signal (z-score)” value [17] of the same binder?
A: The value was -0.098.

Q: And the “glycan array binding signal (z-score)” value [18]?
A: Its value is -0.09.

Q: And the “glycan array binding signal (z-score)” value [19]?
A: Its value is -0.12.

Q: What about the “glycan array binding signal (z-score)” value [20] of the same binder?
A: The value was 0.047.

Q: And the “glycan array binding signal (z-score)” value [21]?
A: Its value is 0.022.

Q: And the “glycan array binding signal (z-score)” value [22]?
A: The value was -0.051.

Q: What about the “glycan array binding signal (z-score)” value [23] of the same binder?
A: Its value is -0.13.

Q: And the “glycan array binding signal (z-score)” value [24]?
A: The value was -0.116.

Q: What about the “glycan array binding signal (z-score)” value [25] of the same binder?
A: Its value is -0.128.
